Results as given in PMC5671938, “Multimerin-2 is a ligand for group 14 family C-type lectins CLEC14A, CD93 and CD248 spanning the endothelial pericyte interface” (Oncogene, 2017).
Results are given in words; binding and its absence hold for the method and conditions named. Some entries that bind do so weakly or less than the wild type.

Sequences of proteins named here, by UniProt entry; tags and fusion partners are left off. Residues count along the entry.
UniProt Q86T13, residues 22-397: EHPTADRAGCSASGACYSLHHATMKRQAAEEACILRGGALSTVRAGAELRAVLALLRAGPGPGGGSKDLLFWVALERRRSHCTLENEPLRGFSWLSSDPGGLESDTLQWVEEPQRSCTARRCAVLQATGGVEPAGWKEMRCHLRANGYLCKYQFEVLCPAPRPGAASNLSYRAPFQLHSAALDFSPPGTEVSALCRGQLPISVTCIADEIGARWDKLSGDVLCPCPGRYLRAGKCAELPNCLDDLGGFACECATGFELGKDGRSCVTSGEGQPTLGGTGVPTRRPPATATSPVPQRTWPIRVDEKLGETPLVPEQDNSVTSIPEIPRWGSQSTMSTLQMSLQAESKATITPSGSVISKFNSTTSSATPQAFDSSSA

Legend:
Assay in all cases: far-Western; lysates of HEK293T transfected with His-tagged MMRN2 constructs separated by SDS-PAGE under reducing conditions; probed 1 h with CLEC14A-ECD-Fc (2 μg/ml); only the binder purified
MMRN2^487-603 (human) = target: T1, MMRN2^487-603 (human) (UniProt Q9H8L6)
T1 sequence: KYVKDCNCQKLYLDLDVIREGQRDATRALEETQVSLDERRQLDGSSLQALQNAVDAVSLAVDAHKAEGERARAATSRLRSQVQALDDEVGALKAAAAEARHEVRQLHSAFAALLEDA

MMRN2^487-674 (human) = target: T2, MMRN2^487-674 (human) (UniProt Q9H8L6)
T2 sequence: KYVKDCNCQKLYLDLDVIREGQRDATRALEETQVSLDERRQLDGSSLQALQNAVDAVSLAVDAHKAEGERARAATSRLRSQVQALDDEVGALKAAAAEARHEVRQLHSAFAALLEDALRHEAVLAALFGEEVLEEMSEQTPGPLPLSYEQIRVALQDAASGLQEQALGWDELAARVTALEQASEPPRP

MMRN2^487-820 (human) = target: T3, MMRN2^487-820 (human) (UniProt Q9H8L6)
T3 sequence: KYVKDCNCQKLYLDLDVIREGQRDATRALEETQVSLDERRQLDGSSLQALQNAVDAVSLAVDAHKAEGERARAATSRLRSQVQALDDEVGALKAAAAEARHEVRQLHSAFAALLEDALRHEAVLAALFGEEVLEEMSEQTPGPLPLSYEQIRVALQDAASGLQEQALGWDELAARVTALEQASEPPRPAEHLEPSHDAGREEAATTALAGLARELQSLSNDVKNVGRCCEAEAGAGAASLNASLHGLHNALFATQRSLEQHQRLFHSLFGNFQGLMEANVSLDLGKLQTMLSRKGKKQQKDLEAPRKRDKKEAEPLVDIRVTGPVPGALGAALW

MMRN2^530-624 (human) = target: T4, MMRN2^530-624 (human) (UniProt Q9H8L6)
T4 sequence: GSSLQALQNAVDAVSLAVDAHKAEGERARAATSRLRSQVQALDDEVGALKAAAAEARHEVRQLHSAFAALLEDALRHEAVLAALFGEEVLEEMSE

MMRN2^604-674 (human) = target: T5, MMRN2^604-674 (human) (UniProt Q9H8L6)
T5 sequence: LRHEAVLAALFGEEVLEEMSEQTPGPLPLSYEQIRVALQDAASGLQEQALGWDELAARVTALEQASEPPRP

## recombinant CLEC14A extracellular domain with an Fc tag (CLEC14A-ECD-Fc) (from UniProt Q86T13 22-397) (Fc fusion)
MMRN2^487-603 (human)
  binding: no binding (tested: 2 μg/ml)
MMRN2^487-674 (human)
  binding: binds
MMRN2^487-820 (human)
  binding: binds
MMRN2^530-624 (human)
  binding: binds
MMRN2^604-674 (human)
  binding: no binding (tested: 2 μg/ml)
